Experimental data: the RNAGym collection of RNA variant scans (doi:10.7554/elife.90254)
Read counts are not given, so values of variants with three or more changes are uncertain.

B1: OR4K15 (parent)
chain: GUUAACGGUCAUAGGCCAUGGAAACUAGGAGCACCAUUUCGCUGCCAGUGAAGAAAUGAACAAAGAAAAUCUGGGCCAGGCAGGCAUCAAAAGAAAUAGUCUUGCGCUCAACCAGAAAGUCUGUAAUCAUUUUAAGGGUA

Variants of: B1
Test: self-cleavage, relative activity (ratio to wild type); higher = more cleavage; in vitro, sequencing; the parent is a self-cleaving ribozyme

Variant	self-cleavage
GUUAACGGUCAUAGGCCAUGGAAACUAGGAGCACCACUUCGCUGCCAGUGAAGAAAUGAACGAAGAAAAUCUGGGCCAGGCAGGCAUCAAAAGAAAUAGUCUUGCGCUCAACCAGAAAGUCUGUAAUCAUUAUAAGGGUA	0.93
GUUAACGGUCAUAGGCCAUGGAAACUAGGAGCACCAUUUCACUGCCAGUGAAGAAAUGAACAAAGAAAAUCUGGGCCAGGCAGGCAUCAAAAGAAAUAGUCUUGUGCUCAACCAGAAAGUCUGUAAUCAUAUUAAGGGUA	0.23
GUUAACGGUCAUAGGCCAUGGAAACUAGGAGCACCAUUCCGCCGCCAGUGAAGAGAUGAACAAAGAAAAUCUGGGCCAGGCAGGCAUCAAAAGAAAUAGUCUUGCGCUCAACCAGAAAGUCUGUAAUCAUUUUAAGGGUA	0.99
GUUAACGGUCAUAGGCCAUGGAAACUAGGAGCACCAUUUCGCUGCCAGUGAAGAAAUGAGCAAAGAAGAUCUGGGCCAGGCAGGCAUCAAAAGAAAUAGUCUUGCGCUCAACCAGAAUGUCUGUAAUCAUUUUAAGGGUA	0.58
GCUAACGGUCGUAGGCCAUGGAAACCAGGAGCACCAUCCCGCUGCCAGUGAAGAAAUGAACAAAGAAAAUCUGGGCCAGGCAGGCAACAAAAGAAAUAGUCUUGCGCUCAUCCAGAAAGUCUGUAAUCAUUUUAAGGGUA	0.1
GUUAACGGUCAUAGGCCAUGGAAACUAGGAGCACCAUUUCGCUGCCAGUGAAGAAAUGAACAAAGGAAGUCUGGGCCAGGCAGGCAUCAAAAGAAAUAGUCUUGCGCUCAACCAGAAAGUCAGUAAUCAUUUUAAGGGUA	0.55
AUUAACGGUCAUAGGCCAUGGAAACUAGGAGCACCAUUUCGCUGCCAGUGAAGAAAUGAACAAAGAAGAUCUGGGCCAGGCAGGCAUCAGAAGAAAUAGUCUUGCGCUCAACCAGAAAGUCUGUAAUCAUUUUAAGGGUA	1.1
GUUAACGGUCAUAGGCCAUGGAAACUAGGAGCACCAUCUCGCUGCCAGUGAAGAAAUGAACAAAGAGAAUCUGGGCCAGGCAGGCAUCAAAAGAAAUAGUCUUGCGCUCAACCAGAAAGUCUGUAAUCGUUUUAAGGGUA	0.65
GUUAUCGGUCAUAGGCCAUGGAAACUAGGAGCACCAUUUCGCUGCCGGUGAAGAAAGGAACAAAGAAAAUCUGGGCCAGGCAGGGAUCAAAAGAAAUAGUCUUGCGCUCAACCAGAAAGUCUGUAAUCAUUUUAAGGGUA	0.46
GUUAACGGUCAUAGGCCAUGGAAACUAGGAGCACCAUUUCGCUGCCAGUGAAGAAAUGAACAAAGAAAAUCUGGGCCAGGCAGGCUUCAAAAGAAAUAGUCUUGCGCUCAACCAGAAAGUCUGCAAUCAUUUUAAGGAUA	0.93
GUUAACGGUCAUAGGCCAGGGAAACUAGGAGCACCAUUUCGCUGCCAGUGAAGAAAUGAACAAAGAAAAUCUGGGCCAGGCAGGCAUCGAAAGAAAUAGUCUUGCGCUCAACCAGAAAGUCUGUAAUCACUCUAAGGGUA	0.6
GUUAACGGUCAUGGGCCAUGGAAACUAGGAGCACCAUUUCGCUGCCAGUGGAGAAAUGAACAAAGAAAGUCUGGGCCAGGCAGGCAUCAAAAGAAAUAGUCUUGCGCUCAACCAGAAAGUCUGUAAUCAUUUUAAGGGUA	1.27
GUUAACGGUCAUAGGCCAUGGAAACUAGAAGCACCAUUUCGCUGCCAGUGAAGAAAUGAACAAAGAAAAUCUGGGCCAGGCAGGCAUCAGAAGAAAUAGUCUUGCGCUCAACCAGAAAGACUGUAAUCAUUUUAAGGGUA	0.63
GUUGACGGCCAUAGGCCAUGGAGACUAGGAGCACCAUUUCGCUGCCAGUGAAGAAAUGAACAAAGAAAAUCUGGGCCAGGCAGGCAUCAAAAGAAAUAGUCUUGCGCUCAACCAGAAAGUCUGUAAUCAUUUUAAGGGUA	0.98
GUUAACGGUCAUAGGCCAUGGAAGCUAGGAGCACCAUUUCGCUGCCAGUGAAGAAAUGAACAAAGAAGAUCUGGGCCAGGCAGGCAUCAAAAGAAAUAGUCUUGCGCUCAACCAGAGAGUCUGUAAUCAUUUUAAGGGUA	2.09
GUUAACGGCCAUAGGCCAUGGAAACUAGGAGCACCAUUUCGCAGCCAGUGAAGAAAUGAGCAAAGAAAACCUGGGCCAGGCAGGCAUCAAAAGAAAUAGUCUUGCGCUCAACCAGAAGGUCUGUAAUCAUUUUAAGGGUA	0.22
GUUAACGGUCAUAGGCCAUGGAAACCAGGAGCACCAUUCCGCUGCCAGUGAAGAAAUGAACAAAGAAAAUCUGGGCCAGGCAGGCAUCAAAAGAAAUAGUCUUGCGCUCAACCAGAAAGCCUGUAAUCAUUUUAAGGGCA	0.73
GUUAACGGUCAUAGGCCAUGGAAACUAGGAGCGCCAUUUCGCUGCCAGUGAAGAAAUGAACAAAGAACAUCUGGGCCAGGCAGGCAUCAAAAGAAAUAGUCCUGCGCUCAACCAGAAAGUCUGUAAUCAUUUUAAGGGUA	1.62
GUUAACGGUCACAGGCCAUGGAAACUAGGAGCACCAUCUCGCUGCCAGUGAAGAAAUGAACAAAGAAAAUCUGGGCCAGGCAGGCAUCAAAAGAAAUAGUCUUGCGCUCAACCAGAGAGUCUGUAAUCAUUUUAAGGGUA	0.95
GUUAACGGUCAUAGGCCAUGGAAACUAGGAGCACCAUUUCGCUGCCAGUGAAGAAAUGAACAAAGAAAAUCUGGGCCAGGCAGGCGUCAGAAGAAAUAGUCUUGCGCUCAACCAGAAAGUCCGUAAUCAUUUUAAGGGUA	0.9
GUUAACUGUCAUAGGCCAUGGAAACUAGGUGCACCACUUCGCUGCCAGUGAAGAAAUGAACAAAGAAAAUCUGGGCCAGGCGGGCAUCAAAAGAAAUAGUCUUGCGCUCAACCAGAAAGUCUGUAAUCAUUUUAAGGGUA	0.58

Variant	self-cleavage
GUUAACGGUCAUGGGCCAUGGAAACUAGGAGCACCAUUACGCUGCCAGUGAAGAAAUGAACAAAGAAGAUCUGGGCCAGGCAGGCAUCAAAAGAAAUAGUCUUUCGCUCAACCAGAAAGUCUGUAAUCAUUUUAAGGGUA	0.04
GUUAACGGUCAUAGGCCAUGGAUACUAGGAGCCCCAUUUCGCUGCCAGUGAAGAAAUGAACAAAGAAAACCUGGGCCAGGCAGGCAUCAGAAGAAAUAGUCUUGCGCUCAACCAGAAAGUCUGUAAUCAUUUUAAGGGUA	1.06
GUUAACGGUCAUAGGCCGUGGAAACUUGGAGCACCAUUUCGCUGCCAGCGAAGAAAUGAACAAAGAAAAUCUGGGCCACGCAGGCAUCAAAAGAAAUAGUCUUGCGCUCAACCAGAAGGUCCGUAAUCAUCUUAAGGGUA	0.03
GUUGACGGACAUAGGCCAUGGAAACUAGGAGCACCAUUUCGCUGCCAGUGAGGAAAUGAACAAAGAAAAUCUGGGCCAGGCAGGCAUCAAAAGAAAUAGUCUUGCGCUCAACCAGAAAGUCUGUAAUCAUUUUAAGGGUA	0.79
GUUAACGGUCAUGGGCCAUGGAAACUAGGAGCACCAUUUCGCCGCCAGUGAAGAAAUGAACAAAGAAAAUCUGGGCCAGGCAGGCAUCAAAGGAAAUAGUCUUGCGCUCAACCAGAAAGUCUGUAAUCAUUUUAAGGGUA	0.84
GUUAACGGUCAUAGGCCAUGGAAACUAGGAGCACCAUUUCGCUGCCAGUGAAGAAAUGAACAAAGAAAAUCUGGGCCAGGCAGGCAACAAAAGUAAUAGUCUUGCGCUCAACCAGAAAGUCUGUAAUCAUUUUAAAGGUA	2.02
GUUAACGGUCAUAGGCCAUGGAAACUAGGAGCACCAUUCCGCUGCCAGUGAAGAAAUGAACAAAGAAAAUCUGGGCCAGGCAGGCAUCAAAAGAAAUAGUCUUGCGCACAACCAGAAAGUCUGCAAUCGUUUUAAGGGUA	0
GUUAACGGUCAUAGGCCAUGGAAACUAGGAGCACCAUUUCGCUGCCAGUGAAGAAAUGAACAAAGAAAGUCUGGGCCUGGCAGGCAUCAAAAGAAAUAGUCUUGCGCUCAACCCGAAAGUCUGUAAUCAUUUUAAGGGUA	0
GUUAACGGUCAUAGGCCACGGAAACUAGGAGCACCAUUUCGCUGCCAGUGAAGAAACGAACAAAGAGAAUCUGGGCCAGGCAGGCAUCAAAAGAAAUAGUCUUGCGCUCAACCAGAAAGUCCGUAAUCAUUUUAAGGGUA	1.41
GUUAACGGUCAUAGGCCAUGGAAACUAGGAGCACCAUCUCGCUGCCAGUGAAGAAAUGAACGAAGAAAAUCAGGGCCAGGCAGGCAUCAAAAGAAAUAGUCUUGCGCUCAACCAGAAAGUCUGUAAUCAUUUUAAGGGUA	0.13
GUUAACGGUCAUAGGCCAUGGAAACUAGGAGCACCAUUUCGCUGCCAGUGAAGAAAUGGACAAAGAAAAUCUGGGCCAGGCAGGCAUCGAAAGAAAUAGUCUUGCGCUCAACCAGAGAGUCUGUAAUCAUUUUAAGGGUA	1.6
GUUAACGGUCAUAGGCCAUGGGAACUAGGAGCACCAUUUCGCUGCCAGUGAAGAAAUGAACAAAGAAAAUCUGGGCCGGGCAGGCAUCAAAAGAAAUAGUCUUGCGCUCAACCAGAAAGUCCGUAAUCAUUUUAAGGGUA	0.34
GUUAACGGUCAUAGGCCAUGGGAACUAGGAGCUCCAUUUCGCUGCCGGUGAAGAAAUGAACAAAGAAAAUCUGGGCCAGGCAGGCACCAAAAGAAAUAGUCUUGCGCUCAACCAGAAAGUCUGUAAUCAUUUUAAGGGUA	0.95
GUUAACGGUCAUAGGCCAUGGAAACUAGGAGCACCAUUUCGCUGCCAGUGAAGGAAUGAACGAAGAAAAUCUGGGCCAGGCAGGCAUCAAAAGAGAUAGUCUUGCGCUCAACCAGAAAGUCUGUAAUCAUUUUAAGGGUA	1.16
GUUAACGGUCAUAGGCCAUGGAAACUAGGAGCACCAUUUCGCUGCCCGUGAAGAAAUGAACAAAGAAAAUCUGGGCCAGGCAGGCAUCAAAAGAAAUAGUCUCGCGCUCAACCAGAAAGUCUGUAAUCGUUUUAAGGGUA	0.3
GUUAACGGCCAUAGGCCACGGAAACUAGGAGCACCAUUUCGCUGCCAGUGAAGAAAUGAACAAAGAAAAUCCGGGCCAGGCAGGCGUCAAAAGAAAUAGUCUUGCGCUCAACCAGAAAGUCUGUAAUCAUUUUAAGGGUA	0.28
GUUAACGGUCAUAGGCCAUGGAGACUAGGAGCACCAUUUCGCUGCCAGUGAAGAAAUGAACCAAGAAAAUCUGGGCCAGGCAGGCAUCAAAAGAAAUAGUCUAGCGCUCAACCAGAAAGUCUGUAAUCAUUUUAAGGGUA	0.58
GUUAACGGCCAUAGGCCAUGGAAACUAGGAGCACCAUUUCGCUGCCAGUGAAGAAAUGAACAAAGAAAAUCUGGGCCAGGCAGGCAUCAAAAGAGAUAGUCUUGCGCUCAACCAGAAAGUCAGUAAUCAUCUUAAGGGUA	1.9
GUUAACGGUCAUAGGCCAUGGAAACUAGGAGCACCAUUUCGCUGCCAGUGAAGAAAUGAACAAAGAGAAUCUGGGCCAGGCAGGCAUUAAAAGAAAUAGUCUUGCGCUCAACCAGAUAGUCUGUAAUCAUUUUAAGGGUA	0.54
GUUAACGGUCAUAGGCCAUGGAAACUAGGAGCACCAUUUCGCUGCCAGAGAAGAAAUGAACAAAGAAAAUCUGGGCCAGGCAGGCAUCGAAAGAAAUAGUCUUGCGCUCGACCAGAAAGUCUGUAAUCAUUUUAAGGGUA	0.04
